{"source": "the supplement of paper PMC11417369", "note": "The other results are listed elsewhere or left out."}
{"test_system": "PfHDP1 homeodomain (GST-tagged)", "experiment": "gcPBM binding intensity (ln(normalized median fluorescence intensity)); higher = stronger DNA binding", "in_short": "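The highest Masliner-normalised natural-log median intensity across replicate spots of either probe orientation is reported as binding intensity. GST-tagged P. falciparum DNA-binding domains expressed in E. coli were applied for 1 h to an Agilent 4 × 180k array of primer-extended double-stranded 36-bp intergenic genomic probes plus negative controls, and bound protein was detected with Alexa488 anti-GST antibody and scanned at 488 nm.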"}
{"sequence": "TCTTTTTCATCTTTCAACAAAAAATAATATATGTGT [CACACA_negctrl_site866]", "gcPBM binding intensity (ln)": 6.58}
{"sequence": "AAAAATAAAAAATATAAAAATATAAAAATATAAAAA [XGTACX_negctrl_site51]", "gcPBM binding intensity (ln)": 6.29}
{"sequence": "TTATATTTTCTCCGCGTGCACATATGTATACTATAC", "gcPBM binding intensity (ln)": 9.66}
{"sequence": "TAGGGTAGTTATAATTGTACTTTTCTCCAAAAAAAA [XGTACX_site7321]", "gcPBM binding intensity (ln)": 6.44}
{"sequence": "TTTTTGTTTTTTTGTTTATCGTTCGTGACTACATGA [TGCATGCA_negctrl_site124]", "gcPBM binding intensity (ln)": 6.62}
{"sequence": "GAAATCTAAATAGAAACACACATATATATATATATA [CACACA_site3863]", "gcPBM binding intensity (ln)": 9.3}
{"sequence": "ATAAACAAACATAAATCTGATTTTAATTTTTTTAAG [CACACA_negctrl_site313]", "gcPBM binding intensity (ln)": 5.81}
{"sequence": "TAGGTAAATGCAAATTGGTTTAAATCAAAATATAAA [XGTACX_negctrl_site250]", "gcPBM binding intensity (ln)": 7.27}
{"sequence": "TTTATTATTTTAACGTGTACAAGGTATATAATATTC [XGTACX_site5241]", "gcPBM binding intensity (ln)": 6.67}
{"sequence": "TGATATTATATATATACACACATGTATGTATTTATA [CACACA_site4874]", "gcPBM binding intensity (ln)": 6.56}
{"sequence": "GTATCAAAAGAATACACACACACATACAGATATATA [CACACA_site5975]", "gcPBM binding intensity (ln)": 6.89}
{"sequence": "TTGTAATTATTAAACACACACAAAATATATATAATA [CACACA_site2523]", "gcPBM binding intensity (ln)": 7.04}
{"sequence": "AGGTGAGCTCAGACTACACACACAAAGAAAAAAATA [CACACA_site8439]", "gcPBM binding intensity (ln)": 6.79}
{"sequence": "CCATAAAAATATAATACACACATATATATTAACATA [CACACA_site4102]", "gcPBM binding intensity (ln)": 6.62}
{"sequence": "AAAAAAAAAAAAAACACACACATACAGACAAAAATG [CACACA_site83]", "gcPBM binding intensity (ln)": 6.89}
{"sequence": "CTAAATTATAGATCAGTGCAATTTAATATGAGTCCA", "gcPBM binding intensity (ln)": 8.76}
{"sequence": "TGCGTATATATATACACACACATATATATATTTTAA [CACACA_site1952]", "gcPBM binding intensity (ln)": 6.76}
{"sequence": "TGTTTTTAAAAAAAAAAAAAATCACACCGGCAGGTA [CACACA_negctrl_site1437]", "gcPBM binding intensity (ln)": 5.9}
{"sequence": "TATTTCATTAATGTCACTTTGAAAGAAATGAAAAAA [CACACA_negctrl_site1803]", "gcPBM binding intensity (ln)": 6.44}
{"sequence": "AAAAAAAAAAGACACACACACAAAATAAACAAACAA [CACACA_site7308]", "gcPBM binding intensity (ln)": 6.92}
{"sequence": "CATATTATTCTTTTCACACACGCGTTAATAATAATC [CACACA_site3931]", "gcPBM binding intensity (ln)": 7.32}
{"sequence": "TATTGACATATATTAGTGCAATAATGAAATCAAGTA", "gcPBM binding intensity (ln)": 10}
{"sequence": "TATATATGTATCAAGTGTACAGTTTTAAAAAAAAAA [XGTACX_site6011]", "gcPBM binding intensity (ln)": 7.05}
{"sequence": "ATACATCGTATATAAGTGCATATTAAGGTCTTAAGA [GTGCAC_site9560]", "gcPBM binding intensity (ln)": 8.69}
{"sequence": "GAACATTTGAAATATGCACACATGTATAAACATACA [CACACA_site5463]", "gcPBM binding intensity (ln)": 9.88}
{"sequence": "ACACACAATACAAAAGTGCATATAATAATTAATCAT", "gcPBM binding intensity (ln)": 7.77}
{"sequence": "GTGTTGAATTATGTGCTTTTTTCTTTCTACTCAGTA [XGTACX_negctrl_site464]", "gcPBM binding intensity (ln)": 7.24}
{"sequence": "TTTTTTTGCCATATTACACACACACGGGTAAACCCC [CACACA_site6874]", "gcPBM binding intensity (ln)": 6.92}
{"sequence": "TAAATTTTTATTTGTAGTACTATATATATATATATA [XGTACX_site1026]", "gcPBM binding intensity (ln)": 9.21}
{"sequence": "TTTAATATAACTATTTGTACATAAAGAATATAAATA [XGTACX_site4594]", "gcPBM binding intensity (ln)": 6.3}
{"sequence": "TAATGAAAATATATAACACACAAAAGTTATAAATAT [CACACA_site1189]", "gcPBM binding intensity (ln)": 6.43}
{"sequence": "CTACATAAAAAAATATGTACATATATATATATATAT [XGTACX_site667]", "gcPBM binding intensity (ln)": 9.15}
{"sequence": "TTATCGACCAATAAAGCATGCAAAAAAAAAAAAAAA [TGCATGCA_site788]", "gcPBM binding intensity (ln)": 6.46}
{"sequence": "AAGAGAAAAAGAATGAAAGAAAAAAAAAAAAAATAT [CACACA_negctrl_site1527]", "gcPBM binding intensity (ln)": 6.33}
{"sequence": "CCCACAGACAAAAACACACACAAAGGTGTTCTTATA [CACACA_site4840]", "gcPBM binding intensity (ln)": 6.37}
{"sequence": "TTTTTAAAGGTGATAAAACACACGATTTAGAAATGT [CACACA_site3160]", "gcPBM binding intensity (ln)": 6.36}
{"sequence": "TCTATTAATTAATATACACACATTATGTATATATAT [CACACA_site2541]", "gcPBM binding intensity (ln)": 6.81}
{"sequence": "TTTCATTAATCTAATAGTACAGAAAATTGAGAAAAA [XGTACX_site8395]", "gcPBM binding intensity (ln)": 6.66}
{"sequence": "GTATACAAACATATAAATATAAATGTATTATTTGTT [CACACA_negctrl_site756]", "gcPBM binding intensity (ln)": 6.09}
{"sequence": "TCGTGCATAAATCATACACACACACCGATATATATA [CACACA_site8767]", "gcPBM binding intensity (ln)": 9.94}
{"sequence": "TCACAATTTTTTAGTACACACATATAAATATATAAA [CACACA_site1537]", "gcPBM binding intensity (ln)": 6.64}
{"sequence": "AAAAAAAAAAAAAACGCACACATTTTTACAATTCTA [CACACA_site3271]", "gcPBM binding intensity (ln)": 6.94}
{"sequence": "TTTGTATCCTTTTTGACATGCAACCATTCGGGTACA [TGCATGCA_site506]", "gcPBM binding intensity (ln)": 6.63}
{"sequence": "AAAAAATTGACTAATGCACACAATTACAGATATATA [CACACA_site5010]", "gcPBM binding intensity (ln)": 9.85}
{"sequence": "ACTTTAACCTGAACGGTGCATAAAATTTTGGCATTA", "gcPBM binding intensity (ln)": 9.67}
{"sequence": "AAAGATAAAAAAAGTACACACACACCGATATATATA [CACACA_site9006]", "gcPBM binding intensity (ln)": 7.18}
{"sequence": "CACGAACACAAACACAAACACACATCATATATATAT [CACACA_site1322]", "gcPBM binding intensity (ln)": 8.56}
{"sequence": "AATATATATAAAAAGGGAAAAATATATAAATAGATA [XGTACX_negctrl_site52]", "gcPBM binding intensity (ln)": 6.4}
{"sequence": "CATAATATGACATACACACACAAAAAAAAAAAAATA [CACACA_site1285]", "gcPBM binding intensity (ln)": 6.32}
{"sequence": "AACCGGGCCTAAGATGTAATGCCTTAGCCTATAAAA [CACACA_negctrl_site479]", "gcPBM binding intensity (ln)": 5.57}
{"sequence": "TTTATATTAAAATATTGTACGGACATTATTTTGTAA [XGTACX_site8128]", "gcPBM binding intensity (ln)": 6.3}
{"sequence": "ATAAAATATATGAAGACACACATAACATCATATTTT [CACACA_site3144]", "gcPBM binding intensity (ln)": 6.18}
{"sequence": "TTTGTTGTTTGGAGATGTACATATTTTACACTTTTT [XGTACX_site5965]", "gcPBM binding intensity (ln)": 6.93}
{"sequence": "AAAAAATTAATAAAAACACACAAAAAAAATAAACAA [CACACA_site1907]", "gcPBM binding intensity (ln)": 6.94}
{"sequence": "ATTTCACAGAGACACACACACAATATATTTCCTTTT [CACACA_site7773]", "gcPBM binding intensity (ln)": 7.08}
{"sequence": "TAAACATAATATTTAACACACATGAAGATGTATATT [CACACA_site1036]", "gcPBM binding intensity (ln)": 5.97}
{"sequence": "ATAAATATTTACAAAAGTACACATAACTTTAGATAT [XGTACX_site1685]", "gcPBM binding intensity (ln)": 6.28}
